Results published in the antibiotic and cytotoxicity screens of Wong et al. (2023).
This is one part of the list.

Assays:
[1] = tested on: HSkMC (human skeletal muscle cells); assay: cytotoxicity call (relative viability < 0.9); conditions: 10 µM
[2] = tested on: HepG2; assay: cytotoxicity call (relative viability < 0.9); conditions: 10 µM
[3] = tested on: S. aureus RN4220; assay: growth inhibition call (relative growth <= 0.2); conditions: 50 µM

Row | Compound | cytotoxicity call [1] | cytotoxicity call [2] | growth inhibition call [3]
1 | Cc1ccc(S(=O)(=O)N2C[C@@H](O)COC[C@@H]3O[C@H](CC(=O)N4CCc5ccccc5C4)CC[C@H]32)cc1 | inactive | inactive | inactive
2 | O=C(CN1CCOCC1)NCC[C@@H]1CC[C@H](NS(=O)(=O)c2ccc(Cl)cc2)[C@@H](CO)O1 | inactive | inactive | inactive
3 | C[C@@H]1CN([C@@H](C)CO)C(=O)c2cccc(NC(=O)c3cnccn3)c2O[C@H]1CN(C)S(=O)(=O)c1cccs1 | inactive | inactive | inactive
4 | COc1ccc(S(=O)(=O)N(C)C[C@@H]2OCCCC[C@H](C)Oc3ccc(NC(=O)CCC(F)(F)F)cc3C(=O)N([C@@H](C)CO)C[C@H]2C)cc1 | inactive | inactive | inactive
5 | C[C@@H]1CN([C@@H](C)CO)C(=O)c2cc(NS(=O)(=O)c3ccc(Cl)cc3)ccc2O[C@@H](C)CCCCO[C@@H]1CN(C)Cc1ccncc1 | inactive | inactive | inactive
6 | C[C@@H](OC[C@@]1(c2ccccc2)CC[C@]2(CCC(=O)N2)CN1)c1cc(C(F)(F)F)cc(C(F)(F)F)c1 | inactive | inactive | active
7 | CNCc1cc2ccccc2s1 | inactive | inactive | inactive
8 | C[C@H](CO)N1C[C@H](C)[C@@H](CN(C)Cc2ccccc2)Oc2c(NS(=O)(=O)c3cn(C)cn3)cccc2C1=O | inactive | inactive | inactive
9 | C[C@@H]1CN([C@H](C)CO)C(=O)c2cc(NC(=O)Cc3ccccc3)ccc2O[C@H]1CN(C)C(=O)Nc1ccc(C(F)(F)F)cc1 | inactive | inactive | inactive
10 | C[C@@H]1CCCCO[C@H](CN(C)C(=O)C2CCCCC2)[C@@H](C)CN([C@@H](C)CO)C(=O)c2cc(NC(=O)Nc3ccccc3)ccc2O1 | inactive | active | inactive
11 | Cc1ncc(NC(=O)c2cccc(C(F)(F)F)c2)cc1-c1cnc(OC2CCOCC2)c(N2CCOCC2)c1 | inactive | inactive | inactive
12 | Cc1ccc(S(=O)(=O)N(C)C[C@@H]2OCCCC[C@@H](C)Oc3ccc(NS(=O)(=O)c4ccc(Cl)cc4)cc3C(=O)N([C@@H](C)CO)C[C@@H]2C)cc1 | inactive | inactive | inactive
13 | CCCNC(=O)N(C)C[C@H]1Oc2cc(-c3ccc(C)cc3)ccc2S(=O)(=O)N([C@H](C)CO)C[C@@H]1C | inactive | inactive | inactive
14 | C[C@H](CO)N1C[C@H](C)[C@H](CN(C)S(C)(=O)=O)OCCCC[C@H](C)Oc2ccc(NS(=O)(=O)c3ccccc3)cc2C1=O | inactive | inactive | inactive
15 | COc1ccc(NC(=O)N(C)C[C@H]2OCCCC[C@@H](C)Oc3ccc(NC(=O)c4ccccc4)cc3C(=O)N([C@@H](C)CO)C[C@H]2C)cc1 | inactive | inactive | inactive
16 | C[C@H](CO)N1C[C@H](C)[C@@H](CN(C)C(=O)Nc2ccccc2)Oc2ccc(NC(=O)CCN3CCOCC3)cc2CC1=O | inactive | inactive | inactive
17 | COCC#Cc1ccc2c(c1)O[C@H](CN(C)C(=O)COC)[C@H](C)CN([C@H](C)CO)S2(=O)=O | inactive | inactive | inactive
18 | C[C@@H]1CN([C@@H](C)CO)C(=O)c2cc(C#CC3CCCCC3)cnc2O[C@H]1CN(C)C(=O)c1ccncc1 | inactive | inactive | inactive
19 | Cc1noc(C)c1NC(=O)N(C)C[C@@H]1OCCCC[C@@H](C)Oc2ccc(NS(=O)(=O)c3cccs3)cc2C(=O)N([C@H](C)CO)C[C@H]1C | inactive | inactive | inactive
20 | C[C@@H]1CCCCO[C@H](CN(C)C(=O)Nc2ccccc2)[C@H](C)CN([C@H](C)CO)C(=O)c2cc(NC(=O)C3CCCCC3)ccc2O1 | inactive | inactive | inactive
21 | C[C@@H]1CCCCO[C@H](CN(C)C(=O)Nc2cccc3ccccc23)[C@@H](C)CN([C@@H](C)CO)C(=O)c2cc(NC(=O)c3ccncc3)ccc2O1 | active | active | inactive
22 | NC1CCSCC1 | inactive | inactive | inactive
23 | C[C@@H]1CN([C@H](C)CO)C(=O)Cc2cc(NC(=O)Nc3ccc(C(F)(F)F)cc3)ccc2O[C@H]1CN(C)Cc1ccc(C(=O)O)cc1 | inactive | inactive | inactive
24 | O=c1c(O)c(-c2cc(O)c(O)c(O)c2)oc2cc(O)cc(O)c12 | inactive | inactive | inactive
25 | CC(C)NC(=O)Nc1ccc2c(c1)C(=O)N([C@H](C)CO)C[C@@H](C)[C@H](CN(C)CC1CCCCC1)OCCCC[C@@H](C)O2 | inactive | inactive | inactive
26 | C[C@@H]1CCCCO[C@H](CN(C)Cc2ccc(C(F)(F)F)cc2)[C@H](C)CN([C@H](C)CO)C(=O)c2cc(NS(=O)(=O)c3ccc(F)cc3)ccc2O1 | inactive | inactive | inactive
27 | COC(=O)[C@@H](C)N(C#N)c1nc(C)cc(C)n1 | inactive | inactive | inactive

Row | Compound | cytotoxicity call [1] | cytotoxicity call [2] | growth inhibition call [3]
28 | CN1CCN(C(=O)C[C@H]2CC[C@H]3[C@@H](COc4ccc(NC(=O)C5CCOCC5)cc4C(=O)N3C)O2)CC1 | inactive | inactive | inactive
29 | O=C(C[C@@H]1C[C@@H]2c3cc(NC(=O)Nc4ccc(C(F)(F)F)cc4)ccc3O[C@@H]2[C@H](CO)O1)NCc1cc(F)ccc1F | inactive | inactive | inactive
30 | COCCOC(=O)N1C(=O)[C@@]2(c3cc(C#Cc4ccc(OC)cc4)ccc31)[C@H](c1ccc(OCCO)cc1)N1[C@H](c3ccccc3)[C@H](c3ccccc3)OC(=O)[C@H]1[C@@H]2C(=O)NC[C@H](O)c1ccccc1 | inactive | inactive | inactive
31 | C[C@@H]1CN([C@@H](C)CO)C(=O)c2cc(-c3ccncc3)cnc2O[C@H]1CN(C)S(=O)(=O)c1ccccc1 | inactive | inactive | inactive
32 | Cc1ccc(S(=O)(=O)N[C@@H](Cc2ccccc2)C(=O)NCCn2cc(-c3ccccc3N)nn2)cc1 | inactive | inactive | inactive
33 | Cc1ccc(S(=O)(=O)N(C)C[C@@H]2OCCCC[C@H](C)Oc3ccc(NC(=O)c4ccccc4)cc3C(=O)N([C@H](C)CO)C[C@H]2C)cc1 | inactive | active | inactive
34 | O=C(NCCO)c1cccc(C(=O)NCCO)c1 | inactive | inactive | inactive
35 | Cn1nnc2c(N3CCC(O)CC3)ncnc21 | inactive | inactive | inactive
36 | CO[C@@H]1CN(C)C(=O)c2ccc(NC(=O)NC(C)C)cc2OC[C@@H](C)N(Cc2ccc(-c3ccccn3)cc2)C[C@@H]1C | inactive | inactive | inactive
37 | c1ccc(-c2nc(-c3cccs3)[nH]c2-c2ccccc2)cc1 | inactive | inactive | inactive
38 | COc1ccc(CN(C)C[C@@H]2OCCCC[C@@H](C)Oc3ccc(NS(=O)(=O)c4ccc(Cl)cc4)cc3C(=O)N([C@@H](C)CO)C[C@H]2C)cc1 | inactive | inactive | inactive
39 | C[C@H](CO)N1C[C@H](C)[C@@H](CN(C)C(=O)Nc2ccc(F)cc2)OCCCC[C@H](C)Oc2ccc(NS(=O)(=O)c3ccccc3)cc2C1=O | inactive | inactive | inactive
40 | C[C@@H]1CN([C@@H](C)CO)C(=O)c2cccc(NC(=O)CCCCCC(=O)Nc3ccccc3N)c2O[C@@H]1CN(C)Cc1ccc(Cl)c(Cl)c1 | inactive | inactive | inactive
41 | Cc1noc(C)c1S(=O)(=O)Nc1ccc2c(c1)C(=O)N([C@@H](C)CO)C[C@@H](C)[C@H](CN(C)CC1CC1)O2 | inactive | inactive | inactive
42 | O=C(C[C@@H]1CC[C@H]2[C@@H](COC[C@@H](O)CN2Cc2cc(F)ccc2F)O1)N[C@H]1CCN(Cc2ccccc2)C1 | inactive | inactive | inactive
43 | C[C@@H]1CCCCO[C@H](CN(C)S(=O)(=O)c2cccs2)[C@@H](C)CN([C@@H](C)CO)C(=O)c2cc(NC(=O)C3CCCCC3)ccc2O1 | inactive | inactive | inactive
44 | CN1CCN(C(=O)C[C@H]2CC[C@@H]3[C@H](COC[C@@H](O)CN3C(=O)Nc3cc(Cl)cc(Cl)c3)O2)CC1 | inactive | inactive | inactive
45 | C=CCOC(=O)[C@H]1[C@@H]2C(=O)O[C@@H](c3ccccc3)[C@@H](c3ccccc3)N2[C@@H](c2ccc(OCCOC(=O)[C@@H]3C[C@@H]4C(=O)N[C@@H](CC(C)C)C(=O)N4[C@@H]3c3ccc(O)cc3)cc2)[C@]12C(=O)Nc1ccc(I)cc12 | inactive | inactive | inactive
46 | C[C@H](CO)N1C[C@H](C)[C@H](CN(C)Cc2ccc(C(=O)Nc3ccccc3N)cc2)Oc2c(NC(=O)Nc3ccc4c(c3)OCO4)cccc2C1=O | inactive | inactive | inactive
47 | Cc1noc(C)c1S(=O)(=O)N(C)C[C@H]1OCCCC[C@H](C)Oc2ccc(NC(=O)Nc3ccc(C(F)(F)F)cc3)cc2C(=O)N([C@H](C)CO)C[C@H]1C | inactive | inactive | inactive
48 | O=C1CCC(=O)N1Nc1ccccn1 | inactive | inactive | inactive
49 | C[C@H](CO)N1C[C@H](C)[C@H](CN(C)C(=O)Nc2ccc3c(c2)OCO3)Oc2c(NC(=O)Nc3ccc(C(F)(F)F)cc3)cccc2C1=O | inactive | active | active
50 | C[C@@H]1CN([C@@H](C)CO)C(=O)Cc2cc(NC(=O)Cn3cnnn3)ccc2O[C@@H]1CN(C)S(C)(=O)=O | inactive | inactive | inactive
51 | C[C@@H]1CCCCO[C@H](CN(C)C(=O)Nc2ccc3c(c2)OCO3)[C@H](C)CN([C@H](C)CO)C(=O)c2cc(NC(=O)Nc3ccc(F)cc3)ccc2O1 | inactive | inactive | inactive
52 | COc1ccc(NC(=O)Nc2ccc3c(c2)CC(=O)N([C@H](C)CO)C[C@H](C)[C@H](CN(C)Cc2ccc(-c4ccccc4)cc2)O3)cc1 | inactive | active | inactive
53 | C[C@@H]1CCCCO[C@H](CN(C)C(=O)NC2CCCCC2)[C@H](C)CN([C@@H](C)CO)C(=O)c2cc(NC(=O)c3ccccc3)ccc2O1 | inactive | inactive | inactive
